Measurements published in the supplement of paper PMC3334620.
Whole data set: some 33,000 sequences, median “E-score (-0.5 to 0.5)” near -0.035, cut for the highest 2% near 0.34. The list shows a part of the results.

target: T1, Mot3 (UniProt P54785); test: PBM E-score (8-mer binding enrichment) (E-score (-0.5 to 0.5)); higher = stronger / more preferred TF binding; most listed sequences are background and not binding sites; conditions: protein concentration: 200 nM; construct: GST-full length
T1 sequence: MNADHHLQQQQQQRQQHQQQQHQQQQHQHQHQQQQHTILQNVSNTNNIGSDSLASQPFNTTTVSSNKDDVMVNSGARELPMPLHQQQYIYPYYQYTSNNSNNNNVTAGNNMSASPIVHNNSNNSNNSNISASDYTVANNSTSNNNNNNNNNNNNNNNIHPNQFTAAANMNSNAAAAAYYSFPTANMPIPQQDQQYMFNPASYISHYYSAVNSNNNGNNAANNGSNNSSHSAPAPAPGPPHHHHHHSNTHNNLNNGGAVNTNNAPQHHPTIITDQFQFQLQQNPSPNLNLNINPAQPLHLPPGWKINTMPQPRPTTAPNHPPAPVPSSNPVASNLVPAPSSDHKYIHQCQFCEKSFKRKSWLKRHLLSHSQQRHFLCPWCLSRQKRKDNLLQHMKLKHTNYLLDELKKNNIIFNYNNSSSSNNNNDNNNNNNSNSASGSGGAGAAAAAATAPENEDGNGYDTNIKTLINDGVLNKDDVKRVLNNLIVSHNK
Summary of the method: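 Full-length yeast transcription factors or their DNA-binding domains, GST-tagged and expressed with PURExpress, were applied at about 100-200 nM to universal all-10-mer Agilent arrays. These arrays had been made double-stranded by primer extension on fresh or once-stripped slides. Detection used fluorescent anti-GST, normalisation used masliner, and E-scores for ungapped eight-base words pooled with reverse complements came from the Universal PBM Analysis Suite.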

Question: For GTCCATAA, which “PBM E-score” value is on record?
Answer: The value was -0.154.

Question: Which “PBM E-score” value does the source give for ATCCGGTC here?
Answer: Its value is -0.336.

Question: For CCGGTCAG, which “PBM E-score” value is on record?
Answer: The value was -0.335.

Question: Which “PBM E-score” value does the source give for GCCGAAGA here?
Answer: Its value is -0.14.

Question: GGGGCAAA was tested. Which “PBM E-score” value did it give?
Answer: Its value is -0.144.

Question: AAATGCCT was tested. Which “PBM E-score” value did it give?
Answer: Its value is 0.377.

Question: With GACATGTA as the sequence, how does the “PBM E-score” value read?
Answer: The value was 0.355.

Question: How did the “PBM E-score” value turn out when CATCTAAA was run?
Answer: Its value is -0.021.

Question: For ACTGCAAC, which “PBM E-score” value is on record?
Answer: Its value is -0.182.

Question: How did the “PBM E-score” value turn out when GCCTAGCA was run?
Answer: The value was -0.0583.

Question: With CCGCGGCC as the sequence, how does the “PBM E-score” value read?
Answer: The value was -0.214.

Question: Which “PBM E-score” value does the source give for CGCTGCCG here?
Answer: The value was -0.194.

Question: With TAACTAAA as the sequence, how does the “PBM E-score” value read?
Answer: Its value is 0.104.

Question: With GACGGGCC as the sequence, how does the “PBM E-score” value read?
Answer: The value was -0.242.

Question: How did the “PBM E-score” value turn out when CAGAGTAC was run?
Answer: The value was 0.0416.

Question: How did the “PBM E-score” value turn out when ACGTCTTA was run?
Answer: The value was 0.0845.

Question: With GCTAAAAA as the sequence, how does the “PBM E-score” value read?
Answer: The value was -0.0959.

Question: How did the “PBM E-score” value turn out when AGAATCTG was run?
Answer: Its value is -0.164.

Question: With CACGCATA as the sequence, how does the “PBM E-score” value read?
Answer: Its value is 0.0801.

Question: CAACGCTG was tested. Which “PBM E-score” value did it give?
Answer: Its value is -0.0398.

Question: For TGCCTAAA, which “PBM E-score” value is on record?
Answer: The value was 0.476.

Question: For AGCGTTTA, which “PBM E-score” value is on record?
Answer: The value was 0.122.

Question: Which “PBM E-score” value does the source give for AGCGCCCA here?
Answer: The value was -0.353.

Question: With GAAGTGAA as the sequence, how does the “PBM E-score” value read?
Answer: The value was -0.0897.

Question: Which “PBM E-score” value does the source give for GTCCGCTA here?
Answer: The value was -0.0907.

Question: For ACTAGGTG, which “PBM E-score” value is on record?
Answer: Its value is 0.125.

Question: For ATCTTACC, which “PBM E-score” value is on record?
Answer: The value was -0.152.

Question: GCATAGGA was tested. Which “PBM E-score” value did it give?
Answer: Its value is 0.0984.

Question: For ATCTCCCA, which “PBM E-score” value is on record?
Answer: The value was -0.211.

Question: For GCGCATAA, which “PBM E-score” value is on record?
Answer: Its value is -0.29.

Question: How did the “PBM E-score” value turn out when ATTAGGTA was run?
Answer: The value was 0.277.

Question: Which “PBM E-score” value does the source give for GCGCCGCA here?
Answer: The value was -0.00014.

Question: For CACTAACA, which “PBM E-score” value is on record?
Answer: The value was 0.204.

Question: How did the “PBM E-score” value turn out when ATCGTCAT was run?
Answer: The value was 0.11.

Question: For ACACGAAC, which “PBM E-score” value is on record?
Answer: The value was 0.23.

Question: CGTTTCAC was tested. Which “PBM E-score” value did it give?
Answer: The value was -0.056.

Question: For CGGGGCAA, which “PBM E-score” value is on record?
Answer: Its value is -0.198.

Question: Which “PBM E-score” value does the source give for CCTTCAAC here?
Answer: The value was 0.247.

Question: How did the “PBM E-score” value turn out when CCCGTACG was run?
Answer: Its value is -0.27.

Question: Which “PBM E-score” value does the source give for CCTGCCTC here?
Answer: The value was -0.104.

Question: How did the “PBM E-score” value turn out when ACGACTGG was run?
Answer: The value was -0.096.

Question: Which “PBM E-score” value does the source give for CTGTCACC here?
Answer: The value was -0.117.

Question: Which “PBM E-score” value does the source give for CATGTCAG here?
Answer: Its value is 0.251.

Question: With CTTTAAAG as the sequence, how does the “PBM E-score” value read?
Answer: The value was 0.178.

Question: CTAGAATC was tested. Which “PBM E-score” value did it give?
Answer: Its value is -0.0638.

Question: Which “PBM E-score” value does the source give for GCTTGGCC here?
Answer: Its value is -0.362.

Question: CATCACTC was tested. Which “PBM E-score” value did it give?
Answer: Its value is -0.0208.

Question: TCAGCCCA was tested. Which “PBM E-score” value did it give?
Answer: The value was -0.152.

Question: Which “PBM E-score” value does the source give for GAAGCCTA here?
Answer: Its value is -0.0994.

Question: For GATCAAAC, which “PBM E-score” value is on record?
Answer: The value was -0.125.

Question: How did the “PBM E-score” value turn out when AGTGAGCC was run?
Answer: The value was -0.0781.

Question: With AGTTGACG as the sequence, how does the “PBM E-score” value read?
Answer: Its value is -0.0717.

Question: With CCCTCAGA as the sequence, how does the “PBM E-score” value read?
Answer: Its value is -0.156.

Question: With ATGCCTCC as the sequence, how does the “PBM E-score” value read?
Answer: Its value is 0.0564.

Question: For CGGACACA, which “PBM E-score” value is on record?
Answer: The value was -0.162.

Question: How did the “PBM E-score” value turn out when ACCGAAGT was run?
Answer: The value was 0.0497.

Question: For GGGAGGAC, which “PBM E-score” value is on record?
Answer: Its value is -0.126.

Question: Which “PBM E-score” value does the source give for AATAGTCC here?
Answer: Its value is -0.195.

Question: With GAACCCCC as the sequence, how does the “PBM E-score” value read?
Answer: Its value is -0.261.

Question: With CAGGATCC as the sequence, how does the “PBM E-score” value read?
Answer: The value was 0.036.

Question: AGACTATA was tested. Which “PBM E-score” value did it give?
Answer: Its value is -0.0106.

Question: How did the “PBM E-score” value turn out when AATTTCCT was run?
Answer: Its value is 0.364.

Question: With CGACGTCA as the sequence, how does the “PBM E-score” value read?
Answer: The value was -0.0551.

Question: For CAATTAAA, which “PBM E-score” value is on record?
Answer: The value was 0.123.

Question: With AGTAAACC as the sequence, how does the “PBM E-score” value read?
Answer: The value was 0.0818.

Question: Which “PBM E-score” value does the source give for TTAGAGAA here?
Answer: The value was -0.141.

Question: With CACGGACG as the sequence, how does the “PBM E-score” value read?
Answer: The value was 0.143.

Question: Which “PBM E-score” value does the source give for CGCTTGCC here?
Answer: Its value is 0.193.

Question: Which “PBM E-score” value does the source give for GCCTGGCA here?
Answer: The value was 0.0408.

Question: How did the “PBM E-score” value turn out when AATAAAAT was run?
Answer: The value was 0.155.

Question: For ATCTCCAC, which “PBM E-score” value is on record?
Answer: Its value is -0.102.

Question: How did the “PBM E-score” value turn out when AGCACCGG was run?
Answer: The value was -0.32.

Question: Which “PBM E-score” value does the source give for GGTGTAGA here?
Answer: The value was 0.139.

Question: Which “PBM E-score” value does the source give for AGACATCT here?
Answer: Its value is -0.289.

Question: AGCATCCT was tested. Which “PBM E-score” value did it give?
Answer: Its value is -0.268.

Question: For AAGCGTTC, which “PBM E-score” value is on record?
Answer: Its value is -0.0409.

Question: Which “PBM E-score” value does the source give for GATTCCCA here?
Answer: Its value is -0.0771.

Question: With CGAATTCC as the sequence, how does the “PBM E-score” value read?
Answer: Its value is -0.147.

Question: AGTCCCAC was tested. Which “PBM E-score” value did it give?
Answer: Its value is -0.296.

Question: For GAGCATAC, which “PBM E-score” value is on record?
Answer: The value was -0.01.

Question: Which “PBM E-score” value does the source give for ACAACCAA here?
Answer: The value was 0.00653.

Question: For AAAGCTTA, which “PBM E-score” value is on record?
Answer: Its value is 0.0241.

Question: With TCACTTCA as the sequence, how does the “PBM E-score” value read?
Answer: Its value is -0.22.

Question: How did the “PBM E-score” value turn out when CGAAATAA was run?
Answer: Its value is 0.00932.

Question: GCAACAAC was tested. Which “PBM E-score” value did it give?
Answer: The value was 0.138.

Question: Which “PBM E-score” value does the source give for ATGCAATA here?
Answer: Its value is -0.00066.
